In US20250270341A1 (Alector, published 2025):

T1: human CD98hc endogenously expressed on HCMEC/D3 cells (human)
T1 construct: human brain endothelial cell line
T1 chain: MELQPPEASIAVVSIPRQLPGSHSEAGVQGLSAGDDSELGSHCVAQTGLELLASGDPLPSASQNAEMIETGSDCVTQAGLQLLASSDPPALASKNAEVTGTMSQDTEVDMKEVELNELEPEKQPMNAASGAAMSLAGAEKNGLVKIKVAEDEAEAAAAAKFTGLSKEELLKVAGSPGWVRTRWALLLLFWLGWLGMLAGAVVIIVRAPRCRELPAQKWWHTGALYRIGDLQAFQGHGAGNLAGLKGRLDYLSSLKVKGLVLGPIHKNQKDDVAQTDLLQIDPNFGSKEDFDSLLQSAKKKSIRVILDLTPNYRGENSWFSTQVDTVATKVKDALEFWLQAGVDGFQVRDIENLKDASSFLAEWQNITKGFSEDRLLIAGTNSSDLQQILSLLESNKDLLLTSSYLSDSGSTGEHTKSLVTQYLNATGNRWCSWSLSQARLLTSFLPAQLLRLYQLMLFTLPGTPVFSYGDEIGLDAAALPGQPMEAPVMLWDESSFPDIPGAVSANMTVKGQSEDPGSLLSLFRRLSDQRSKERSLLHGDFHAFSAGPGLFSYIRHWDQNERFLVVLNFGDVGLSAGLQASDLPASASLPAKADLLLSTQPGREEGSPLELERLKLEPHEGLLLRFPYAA

T2: Full length human CD98hc on CHO cells (human)
T2 construct: CHO cells stably overexpressing it; also called CHO-human CD98hc; CHO-huCD98hc
T2 chain: T1 chain

T3: Full length mouse CD98hc on CHO cells (mouse, UniProt P10852 1-526)
T3 construct: CHO cells stably overexpressing it; also called CHO-mouse CD98hc; CHO-mCD98hc
T3 sequence: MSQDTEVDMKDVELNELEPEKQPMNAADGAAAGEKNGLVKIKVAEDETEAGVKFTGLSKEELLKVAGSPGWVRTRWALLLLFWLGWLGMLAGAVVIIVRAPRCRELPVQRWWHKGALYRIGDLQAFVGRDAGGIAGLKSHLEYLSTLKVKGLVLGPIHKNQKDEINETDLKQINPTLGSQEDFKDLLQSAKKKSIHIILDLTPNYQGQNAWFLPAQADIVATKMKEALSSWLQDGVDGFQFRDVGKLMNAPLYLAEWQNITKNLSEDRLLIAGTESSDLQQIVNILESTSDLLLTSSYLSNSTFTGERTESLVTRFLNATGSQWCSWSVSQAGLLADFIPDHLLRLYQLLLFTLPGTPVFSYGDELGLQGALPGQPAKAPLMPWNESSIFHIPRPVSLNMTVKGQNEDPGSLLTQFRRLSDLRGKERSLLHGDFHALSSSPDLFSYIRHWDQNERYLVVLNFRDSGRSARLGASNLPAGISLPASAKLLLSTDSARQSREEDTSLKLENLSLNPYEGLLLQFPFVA

B1: CD98hc.05.006 (2+1 bispecific antibody) (bispecific antibody)
heavy 1: EVRLLESGGGLVQPGGSLRLSCAASGFTFSNYAMGWVRQAPGKGLEWVSAISGSGGSTYYADSVKGRFTTSRDDSKNALYLQMNSLRAEDTAVYYCARGGPGWYAADVWGQGTTVTVSSASTKGPSVFPLAPSSKSTSGGTAALGCLVKDYFPEPVTVSWNSGALTSGVHTFPAVLQSSGLYSLSSVVTVPSSSLGTQTYICNVNHKPSNTKVDKKV[here human IgG1 Fc with changes without letters]GGGGSGGGGSGGGGSEVKLVESGGNLVQPGGSLKLSCAASGFTFSGYSMSWVRQTPDKRLEWVAYIGNGGDSTYYPYTVKGRFTISRDNAKNTLYLQMNSLKSEDSAMYYCARQYVNYPFFDYWGQGTTLTVSSGGSEGKSSGSGSESKSTGGSDIVMSQSPSSLTVSVGAKIILGCKSSQSLLYSGNQKNYLAWYQQKPGQSPKLLIYWASTRESGVPDRFTGSGSGTDFTLTISSVKAEDVAVYYCQQYYTYPPAFGAGTKLEIK
heavy 2: EVRLLESGGGLVQPGGSLRLSCAASGFTFSNYAMGWVRQAPGKGLEWVSAISGSGGSTYYADSVKGRFTTSRDDSKNALYLQMNSLRAEDTAVYYCARGGPGWYAADVWGQGTTVTVSS[here human IgG1 constant region with changes without letters]
light: DIQMTQSPSSLSASVGDRVTITCRASQSISSYLNWYQQKPGKAPKLLIYAASSLQSGVPSRFSGSGSGTDFTLTISSLQPEDFATYYCQQADLPAFAFGGGTKVEIKRTVAAPSVFIFPPSDEQLKSGTASVVCLLNNFYPREAKVQWKVDNALQSGNSQESVTEQDSKDSTYSLSSTLTLSKADYEKHKVYACEVTHQGLSSPVTKSFNRGEC
B2: CD98hc.05.126 (2+1 bispecific antibody) (bispecific antibody)
heavy 1: EVRLLESGGGLVQPGGSLRLSCAASGFTFSNYAMGWVRQAPGKGLEWVSAISGSGGSTYYADSVKGRFTTSRDDSKNALYLQMNSLRAEDTAVYYCARGGPGWYAADVWGQGTTVTVSSASTKGPSVFPLAPSSKSTSGGTAALGCLVKDYFPEPVTVSWNSGALTSGVHTFPAVLQSSGLYSLSSVVTVPSSSLGTQTYICNVNHKPSNTKVDKKV[here human IgG1 Fc with changes without letters]GGGGSGGGGSGGGGSEVKLVESGGNLVQPGGSLKLSCAASGFTFSGYPMSWVRRTPDKRLEWVAYIGSGGDSTYYPYAVKGRFTISRDNAKNTLYLQMNSLKSEDSAMYYCARQYDNYPFFDYWGQGTTLTVSSGGSEGKSSGSGSESKSTGGSDFVMSQSPSSLTVSVGAKVIMSCKSSQSLLYSGNQKNYLAWYQQKPGQSPKLLIYWASTRESGVPDRFTGSGSGTDFTLTISSVKAEDLAVYYCQQYYTYPPTFGAGTKLEIK
heavy 2: EVRLLESGGGLVQPGGSLRLSCAASGFTFSNYAMGWVRQAPGKGLEWVSAISGSGGSTYYADSVKGRFTTSRDDSKNALYLQMNSLRAEDTAVYYCARGGPGWYAADVWGQGTTVTVSS[here human IgG1 constant region with changes without letters]
light: B1 light
B3: CD98hc.05.007 (2+1 bispecific antibody) (bispecific antibody)
heavy 1: EVRLLESGGGLVQPGGSLRLSCAASGFTFSNYAMGWVRQAPGKGLEWVSAISGSGGSTYYADSVKGRFTTSRDDSKNALYLQMNSLRAEDTAVYYCARGGPGWYAADVWGQGTTVTVSSASTKGPSVFPLAPSSKSTSGGTAALGCLVKDYFPEPVTVSWNSGALTSGVHTFPAVLQSSGLYSLSSVVTVPSSSLGTQTYICNVNHKPSNTKVDKKV[here human IgG1 Fc with changes without letters]GGGGSGGGGSGGGGSDVKLVESGGDLVKPGGSLKLSCAASGFTFSSYSMSWVRQTPEKRLEWVATITSGGSYTYFPDSVKGRFTISRDNAKNTLYLQVSNLKSEDTAMYYCTRGPSFGNYLDYWGQGTTLTVSSGGSEGKSSGSGSESKSTGGSDILMTQSPSSMSASLGDTVSITCHASQGISSNIGWLQQKPGKSFKGLIYRGTNLEDGVPSRFSGSGSGADYSLTISSLESEDFADYYCVQYAHFPYTFGGGTKLEIK
heavy 2: EVRLLESGGGLVQPGGSLRLSCAASGFTFSNYAMGWVRQAPGKGLEWVSAISGSGGSTYYADSVKGRFTTSRDDSKNALYLQMNSLRAEDTAVYYCARGGPGWYAADVWGQGTTVTVSS[here human IgG1 constant region with changes without letters]
light: B1 light
B4: CD98hc.04.062 (2+1 bispecific antibody) (bispecific antibody)
heavy 1: EVRLLESGGGLVQPGGSLRLSCAASGFTFSNYAMGWVRQAPGKGLEWVSAISGSGGSTYYADSVKGRFTTSRDDSKNALYLQMNSLRAEDTAVYYCARGGPGWYAADVWGQGTTVTVSSASTKGPSVFPLAPSSKSTSGGTAALGCLVKDYFPEPVTVSWNSGALTSGVHTFPAVLQSSGLYSLSSVVTVPSSSLGTQTYICNVNHKPSNTKVDKKV[here human IgG1 Fc with changes without letters]GGGGSGGGGSGGGGSEVQLVESGGDLVKPGGSLKLSCTASRFAFSTYDMSWVRQTPEKRLEWVAYISSGGGSTYFPDTVKGRFTISRDNAKNTLYLQMSSLKSEDTAMYYCARQDGHYPWFPYWGQGTLVTVSAGGSEGKSSGSGSESKSTGGSDIVMSQSPSSLAVSVGEKVTMSCKSSQSLLYSGNQKTYLAWYQQKPGQSPKPLIYWASTRESGIPDRFTGSGSGTDFTLTISSVKAEDLAVYYCQQYYSYPPTFGAGTKLELK
heavy 2: EVRLLESGGGLVQPGGSLRLSCAASGFTFSNYAMGWVRQAPGKGLEWVSAISGSGGSTYYADSVKGRFTTSRDDSKNALYLQMNSLRAEDTAVYYCARGGPGWYAADVWGQGTTVTVSS[here human IgG1 constant region with changes without letters]
light: B1 light
B5: CD98hc.04.063 (2+1 bispecific antibody) (bispecific antibody)
heavy 1: EVRLLESGGGLVQPGGSLRLSCAASGFTFSNYAMGWVRQAPGKGLEWVSAISGSGGSTYYADSVKGRFTTSRDDSKNALYLQMNSLRAEDTAVYYCARGGPGWYAADVWGQGTTVTVSSASTKGPSVFPLAPSSKSTSGGTAALGCLVKDYFPEPVTVSWNSGALTSGVHTFPAVLQSSGLYSLSSVVTVPSSSLGTQTYICNVNHKPSNTKVDKKV[here human IgG1 Fc with changes without letters]GGGGSGGGGSGGGGSEVKLEESGGGLVQPGGSMILSCVASGFTFSNSWMNWVRQSPEKGLEWVAEIRLRSNNYATHYAESVKGRFTISRDDSKSTVYLQMNNLRAEDTGIYYCSRGDPGAYWGQGTLVTVSAGGSEGKSSGSGSESKSTGGSDIQMTQSSSYLSVSLGNRVTITCKASDHIKNWLAWFQQKPGNAPRLLISGATILETGVPSRFSGSGSGKDYTLSITSLQTEDVATYYCQQYWSTPYTFGGGTKLEIK
heavy 2: EVRLLESGGGLVQPGGSLRLSCAASGFTFSNYAMGWVRQAPGKGLEWVSAISGSGGSTYYADSVKGRFTTSRDDSKNALYLQMNSLRAEDTAVYYCARGGPGWYAADVWGQGTTVTVSS[here human IgG1 constant region with changes without letters]
light: B1 light
B6: CD98hc.04.064 (2+1 bispecific antibody) (bispecific antibody)
heavy 1: EVRLLESGGGLVQPGGSLRLSCAASGFTFSNYAMGWVRQAPGKGLEWVSAISGSGGSTYYADSVKGRFTTSRDDSKNALYLQMNSLRAEDTAVYYCARGGPGWYAADVWGQGTTVTVSSASTKGPSVFPLAPSSKSTSGGTAALGCLVKDYFPEPVTVSWNSGALTSGVHTFPAVLQSSGLYSLSSVVTVPSSSLGTQTYICNVNHKPSNTKVDKKV[here human IgG1 Fc with changes without letters]GGGGSGGGGSGGGGSQVQLQQPGAELVRPGASVKLSCKASGYTFTSYWMNWVRQRPGQGLEWIGLIDPSDSETHYNQMFKDRATLTVDKSSSTAYMQLSSLTSADPAVYYCARASYGKGYFDYWGQGTTLTVSSGGSEGKSSGSGSESKSTGGSDIVMTQSPSSLAMSVGQKVTMSCKSSQSLLNNINQKNYLAWYQQKPGQSPKLLVYFASTRESGVPDRFIGSGSGTDFTLTINTVQAEDLADYFCQQHYSSPFTFGGGTKLEIK
heavy 2: EVRLLESGGGLVQPGGSLRLSCAASGFTFSNYAMGWVRQAPGKGLEWVSAISGSGGSTYYADSVKGRFTTSRDDSKNALYLQMNSLRAEDTAVYYCARGGPGWYAADVWGQGTTVTVSS[here human IgG1 constant region with changes without letters]
light: B1 light
notes: also called mouse CD98hc.04.064

Target: T1, human CD98hc endogenously expressed on …
Assay: FACS
Procedure: (§1) Purified 2+1 anti-CD98hc bispecific antibodies were screened for binding to human and cyno CD98hc by ELISA as in Example 6. Purified 2+1 bispecific antibodies were screened at concentrations ranging from 1-30 μg/mL. ELISA binding to human and cyno CD98 and control cyno TfR AVI-His tagged proteins as a ratio to secondary antibody alone were calculated, and values are listed in Table 10A. Purified 2+1 bispecific antibodies were also screened for their ability to bind CHO cells overexpressing human or mouse CD98hc or cells endogenously expressing human CD98hc by FACS. […] Data was acquired on a FACS Canto (BD Biosciences). The ratio of binding to endogenously expressing human brain endothelial cells over secondary only is also in Table 12B. 47 out of 94 of the 2+1 anti-CD98hc bispecific antibodies screened were positive by ELISA with signal at least 5-fold higher than the secondary alone, and 16 were ELISA and FACS positive which FACS binding increased 3-fold or more compared to non-expressing cells.

Binder | MFI ratio HCMEC/2nd ab only
B1 | 603
B2 | 316
B3 | 403

Target: T2, Full length human CD98hc on CHO cells
Assay: FACS
Procedure: as §1

Binder | MFI ratio CHO huCD98/CHO parental
B1 | 31
B2 | 30
B3 | 24

Target: T1, human CD98hc endogenously expressed on …
Assay: FACS, 5 ug/ml

Binder | MFI fold-change relative to isotype hIgG1
B4 | 136
B5 | 39.8
B6 | 108

Target: T2, Full length human CD98hc on CHO cells
Assay: FACS, 5 ug/ml

Binder | MFI fold-change relative to isotype hIgG1
B4 | 40.3
B5 | 6.1
B6 | 29.5

The binders below were run against T3, Full length mouse CD98hc on CHO cells (assay: FACS, 5 ug/ml).

Binder | MFI fold-change relative to isotype hIgG1
B4 | 1.6
B5 | 1
B6 | 0.4
